# Assay results taken from the supplement of paper PMC10338343.
# ± gives the standard deviation. Only a part is listed here, and it is no random draw.
# System: MIWI (PIWIL1) piRISC loaded with L1MC piRNA (30 nt)
# Assay: pre-steady-state target cleavage rate (min^-1); MIWI and MILI are mouse PIWI proteins and EfPiwi is from a freshwater sponge; tags in brackets are library labels; higher = faster piRNA-guided slicing of the target
# Details: guide: L1MC piRNA 5'p-UAACUAAAUACUAUGCAAGCUGUAGGUCCU
# Procedure, shortened: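 The pre-steady-state cleavage rate was derived from a burst-and-steady-state fit of Cleave-'n-Seq data. For these assays, 1 nM active affinity-purified piRISC loaded with a single synthetic guide was mixed with […] a transcribed, DNA-blocked target RNA library in HEPES–potassium acetate buffer at 33 °C, with or without 500 nM GTSF1 partner protein, for 0–8 or 0–960 min. Sequencing counts of uncleaved targets were normalised to depth and to weakly complementary targets, and k3 was capped at 0.0001 min^-1 after three trials were pooled.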
# [1] = auxiliary factor: 500 nM mouse GTSF1
# [2] = auxiliary factor: none (no GTSF1)
# 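Further: 1 nM active piRISC with 0.1 nM target library at 33 °C single turnover.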
Sequence,pre-steady-state target cleavage rate [1],pre-steady-state target cleavage rate [2]
UCCUGGUACAGCUUGCAAUGUAUUUAGUAA,0.0915 ± 0.016,0.00419 ± 0.0022
UCCACCUACAGCUGCAUAGUAUUUAGUUA,0.815 ± 0.04,0.0053 ± 0.0024
UCGAGGAACAGCUUGCAUAGUAUUUUCAAA,0.357 ± 0.051,0.00332 ± 0.0024
UCCUGGAACUGCUUGCAUAGUAAUUAGUUA,0.278 ± 0.019,0.0119 ± 0.0034
UGGACCUACUGCUUGCAUAGUAUUUACUUA,0.199 ± 0.016,0.0355 ± 0.0061
AGGACCUACAGCAUGCAUAGUAUUUAGAUA,0.616 ± 0.05,0.0177 ± 0.0048
UCGCACCUACAGCUUGCAUAGUAUUUAGUUA,1.06 ± 0.13,0.0648 ± 0.015
UCCACCUACAGGUUGCUUAGUAUUUAGUUA,0.979 ± 0.053,0.0129 ± 0.003
AGGACCUACAGCUUGCAUUGUAAUUAGUUA,0.417 ± 0.022,0.0158 ± 0.0042
UCCUGCUACAGCUUGCAUAGUAUUCUAGUUA,0.521 ± 0.056,0.0141 ± 0.0037
UCCUGGAUGAGCUUGCAUAGUAAUUAGUAA,0.337 ± 0.053,0.00981 ± 0.004
UCCUCGCUACAGCUUGCAUAGUAUUUAGUUA,0.831 ± 0.05,0.0517 ± 0.0088
UCGACCUUCAGCUUGCAUAGUAUUUACAAA,0.385 ± 0.034,0.00444 ± 0.0026
UGGACCUACAGCUGUGCAUAGUAUUUAGUUA,1.28 ± 0.11,0.0389 ± 0.0098
UCCUGCUACAGCUUGCAUAGUAAUUAGUUA,0.64 ± 0.038,0.0216 ± 0.0052
UCCUGGAUGUCCUUGUAUAGUAUUUAGUUA,0.0898 ± 0.016,0.00816 ± 0.0023
UCCACCUACAGCUUGAAUAGUAUUUAGUUA,1.01 ± 0.035,0.0277 ± 0.0053
UCCUGGAUGUGCUUGCAAAGUAUAUAGUUA,0.0183 ± 0.0043,0.00652 ± 0.0024
AGGACCUAGAGCUUCCAUAGUAUUUAGUUA,0.237 ± 0.038,0.00573 ± 0.002
UCCUGCUACACCUUGCAUAGAAUUUAGUUA,0.429 ± 0.13,0.00545 ± 0.0031
